Measurements: patent publication US9011853B2, “B7-H4 fusion proteins and methods of use thereof” (Amplimmune, Inc., priority 2009, dated 2015)
Values joined by “and” are separate entries in the source; they are usually repeats but may differ in a detail not shown here. Equal values may be shown once.

Experiments:
DBA/1 mice [1] = experiment: Therapeutic CIA study AA#80 (male mice), disease score; assay type: in vivo, mouse; settings: male DBA/1 mice; 20 mg/kg IP 3× weekly, 8 doses from Day 24; vs control groups (FIG. 8)
Method: (§1) DBA/1 mice (10 per group) aged 7-9 weeks were used for the CIA model. Mice from several vendors (Jackson Laboratories, Harlan Laboratories, and Taconic Farms) were tested and it was determined that Taconic mice are most appropriate for the CIA studies. Taconic mice develop more consistent and severe disease symptoms and show continued disease progression, while mice from the other vendors often show stable, less severe disease, even in the absence of treatment. female (F) mice in AA#79 and male (M) mice in AA#80, were tested to determine which gender to use in future experiments.
On the day before the study is initiated, the hair on the right flank of each mouse was removed using an electric clipper. A metal identification tag was placed on the right ear of each mouse. On Day 0, mice were immunized with 100 μL of chicken collagen type II/Complete Freund's Adjuvant (CII/CFA) emulsion in the right flank. […]
(§2) Early arthritis symptoms, such as erythema and mild swelling, usually appear on Day 21, and on Day 28, more severe symptoms such as swelling in many digits and inflammation extending to the tarsal joint are typically present. Each limb is evaluated for severity of arthritis symptoms three times a week using a widely accepted arthritis severity score system, shown in Table 2. […]

DBA/1 mice [2] = experiment: Therapeutic CIA study AA#79 (female mice), disease score; assay type: in vivo, mouse
Method: as §1
On the day before the study is initiated, the hair on the right flank of each mouse was removed using an electric clipper. A metal identification tag was placed on the right ear of each mouse. On Day 0, mice were immunized with 100 μL of chicken collagen type II/Complete Freund's Adjuvant (CII/CFA) emulsion in the right flank. On Day 20, the hair on the left flank of each mouse was removed using an electric clipper, and on Day 21, mice were immunized with 100 μL of chicken collagen type II/Incomplete Freund's Adjuvant (CII/IFA) emulsion in the left flank. Pre-filled syringes of CII/CFA and CII/IFA emulsion purchased from Hooke Laboratories were used to ensure consistent dosing with and potency of the immunogen.
as §2, with “2. The scores from each of the 4 limbs are summed to yield the disease score of each mouse.” for “2.”
Treatment was initiated when the average disease score for the study animals was greater than four. This corresponded to Day 29 in AA#79 and Day 24 in […]. By waiting until animals are symptomatic, it was ensured that the model is performed in a therapeutic rather than prophylactic mode.
B7-H4-Ig, RPA110010, and murine B7-H4-Ig proteins were administered by intraperitoneal (IP) injection 3 times a week for a total of 8 doses. RPA110010 is an extracellular domain variant of B7-H4-Ig, SEQ ID NO:126. Control murine and human IgG proteins were given once a week for a total of 3 doses. […] All proteins were diluted to the desired concentration (500 μg in 500 μL, or 1 mg/mL) with sterile PBS immediately before injection. Vehicle control mice receive Amplimmune formulation buffer diluted 1:10 in PBS, with an injection volume of 500 μL.

B1: RPA110010: an extracellular domain variant of B7-H4-Ig, SEQ ID NO:126 (protein)
chain: MEWSWVFLFFLSVTTGVHSGFGISGRHSITVTTVASAGNIGEDGILSCTFEPDIKLSDIVIQWLKEGVLGLVHEFKEGKDELSEQDEMFRGRTAVFADQVIVGNASLRLKNVQLTDAGTYKCYIITSKGKGNANLEYKTGAFSMPEVNVDYNASSETLRCEAPRWFPQPTVVWASQVDQGANFSEVSNTSFELNSENVTMKVVSVLYNVTINNTYSCMIENDIAKATGDIKVTESEIKRRS[… human IgG1 Fc …]
modifications: Synthetic fusion protein
In the case of B1, the “disease scores, AA#80” value (DBA/1 mice [1]) is reported as “not effective”, the CIA disease score (DBA/1 mice [2]; AA#79, Study Day 12, individual mouse (Tag#)) is reported as 1 (3×) and 0 (2×) and 2 and the CIA disease score (DBA/1 mice [2]; AA#79, Study Day 18, individual mouse (Tag#)) is reported as 1 (3×) and 2 (2×) and 3. The CIA disease score (DBA/1 mice [2]; AA#79, Study Day 22, individual mouse (Tag#)) was 2 (3×) and 4 and 3 (2×), the CIA disease score (DBA/1 mice [2]; AA#79, Study Day 25, individual mouse (Tag#)) was 4 (2×) and 3 (3×) and 2 and the CIA disease score (DBA/1 mice [2]; AA#79, Study Day 27, individual mouse (Tag#)) was 4 (4×) and 5 (2×). For the same molecule, the CIA disease score (DBA/1 mice [2]; AA#79, Study Day 29, individual mouse (Tag#)) was 7 and 5 (4×) and 4, the CIA disease score (DBA/1 mice [2]; AA#79, Study Day 32, individual mouse (Tag#)) was 9 and 4 (2×) and 5 (2×) and the CIA disease score (DBA/1 mice [2]; AA#79, Study Day 34, individual mouse (Tag#)) was 11 and 6 (2×) and 3 and 5. The CIA disease score (DBA/1 mice [2]; AA#79, Study Day 36, individual mouse (Tag#)) was 12 (2×) and 7 (3×) and 6, the CIA disease score (DBA/1 mice [2]; AA#79, Study Day 39, individual mouse (Tag#)) was 13 and 7 and 4 and 6 (2×) and 15 and the CIA disease score (DBA/1 mice [2]; AA#79, Study Day 41, individual mouse (Tag#)) was 13 and 7 and 4 and 8 (2×) and 16. For the same molecule, the CIA disease score (DBA/1 mice [2]; AA#79, Study Day 43, individual mouse (Tag#)) was 14 and 4 and 3 and 5 and 9 and 16, the CIA disease score (DBA/1 mice [2]; AA#79, Study Day 46, individual mouse (Tag#)) was 14 and 11 and 9 (2×) and 8 and 16 and the CIA disease score (DBA/1 mice [2]; AA#79, Study Day 48, individual mouse (Tag#)) was 14 and 13 and 5 and 10 (2×) and 16. The CIA disease score (DBA/1 mice [2]; AA#79, Study Day 50, individual mouse (Tag#)) was 14 and 13 and 3 and 11 (2×) and 16, the CIA disease score (DBA/1 mice [2]; AA#79, Study Day 54, individual mouse (Tag#)) was 13 and 12 (2×) and 5 and 11 and 16 and the CIA disease score (DBA/1 mice [2]; AA#79, Study Day 57, individual mouse (Tag#)) was 16 and 12 (2×) and 6 and 13 and 14. For the same molecule, the “disease scores, AA#79” value (DBA/1 mice [2]; female DBA/1 mice, 20 mg/kg IP 3× weekly, 8 doses from Day 29, vs control groups (FIG. 7)) was “not effective”.
